Screen size: about 220,000 compounds; about 5,700 (2.6%) were called active. The inconclusive results got no clear call from the source; some entries with a clear call stand among them for comparison. Calls come from the whole dose curve; as a rule, active = well fitted inhibition curve with a large enough effect; inconclusive = small, poorly fitted or top-dose-only effect; inactive = no such curve, though single readings can be large or run the other way. Potencies beside an inconclusive call are fits to weak or partial responses and may not hold up.
These compounds were tested against Lysine-specific demethylase 5B (Homo sapiens) (UniProt Q9UGL1) (assay: Primary screen for KDM5B Histone Demethylases FDH-coupled qHTS). Settings: FDH-coupled NADH fluorescence (FDH is formaldehyde dehydrogenase); activity change, negative = inhibition: at 57.7 µM (top of the series) unless noted.
Chain of UniProt Q9UGL1 (Q9UGL1 whole entry, looked up): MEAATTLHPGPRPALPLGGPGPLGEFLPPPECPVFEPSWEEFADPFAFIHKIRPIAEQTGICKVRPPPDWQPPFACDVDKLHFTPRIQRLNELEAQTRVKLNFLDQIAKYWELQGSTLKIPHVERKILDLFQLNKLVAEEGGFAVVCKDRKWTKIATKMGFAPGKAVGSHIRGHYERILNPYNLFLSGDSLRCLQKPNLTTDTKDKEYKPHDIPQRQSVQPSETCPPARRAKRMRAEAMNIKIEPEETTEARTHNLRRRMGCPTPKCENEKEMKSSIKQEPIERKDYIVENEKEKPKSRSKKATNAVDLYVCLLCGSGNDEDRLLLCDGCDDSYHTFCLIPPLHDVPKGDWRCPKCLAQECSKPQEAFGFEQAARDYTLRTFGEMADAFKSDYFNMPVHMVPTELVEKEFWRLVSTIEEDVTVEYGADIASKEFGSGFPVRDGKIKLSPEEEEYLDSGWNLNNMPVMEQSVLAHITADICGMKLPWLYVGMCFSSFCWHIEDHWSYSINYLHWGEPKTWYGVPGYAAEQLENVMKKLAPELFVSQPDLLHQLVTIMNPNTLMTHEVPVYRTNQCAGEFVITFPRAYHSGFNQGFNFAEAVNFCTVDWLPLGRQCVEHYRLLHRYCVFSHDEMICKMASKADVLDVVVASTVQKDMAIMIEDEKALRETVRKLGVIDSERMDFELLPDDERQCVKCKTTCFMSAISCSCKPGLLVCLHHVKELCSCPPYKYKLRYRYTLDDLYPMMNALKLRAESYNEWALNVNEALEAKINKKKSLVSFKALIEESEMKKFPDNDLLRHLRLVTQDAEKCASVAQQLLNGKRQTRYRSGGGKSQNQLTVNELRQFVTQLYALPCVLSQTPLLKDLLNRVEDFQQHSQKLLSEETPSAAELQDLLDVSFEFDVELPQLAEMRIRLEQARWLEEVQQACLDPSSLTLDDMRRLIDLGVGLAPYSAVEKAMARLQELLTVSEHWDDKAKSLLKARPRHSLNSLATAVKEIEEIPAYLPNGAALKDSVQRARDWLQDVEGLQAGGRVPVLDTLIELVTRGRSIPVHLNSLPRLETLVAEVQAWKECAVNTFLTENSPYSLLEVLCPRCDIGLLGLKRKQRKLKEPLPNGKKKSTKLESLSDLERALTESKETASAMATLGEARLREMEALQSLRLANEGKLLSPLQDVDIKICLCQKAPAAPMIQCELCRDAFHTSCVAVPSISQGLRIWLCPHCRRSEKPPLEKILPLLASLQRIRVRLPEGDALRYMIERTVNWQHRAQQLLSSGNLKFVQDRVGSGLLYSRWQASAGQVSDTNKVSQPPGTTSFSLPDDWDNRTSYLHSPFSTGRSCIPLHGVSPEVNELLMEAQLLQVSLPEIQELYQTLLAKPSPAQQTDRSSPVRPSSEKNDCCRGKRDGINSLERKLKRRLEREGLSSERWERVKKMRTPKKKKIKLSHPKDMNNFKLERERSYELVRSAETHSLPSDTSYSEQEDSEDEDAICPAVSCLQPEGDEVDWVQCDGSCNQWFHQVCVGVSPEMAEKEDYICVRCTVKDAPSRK
In short: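 Measured: NADH fluorescence change, 30 min, RT. System: KDM5BΔAP 200 nM final, H3K4me3 peptide, α-KG, Fe(II), ascorbate, NAD⁺ plus FDH, pH 7.5 HEPES. Compounds: titrated, 10 min pre-incubation with enzyme.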
Note: nearly all actives have a fitted effect of over 70% in size.
Potency is the fitted concentration of half-maximal effect; tags give direction and shape of the fitted curve.
Throughout, for activity change, negative = inhibition: 0% is about no effect.

Row | Structure (SMILES) | Potency | activity change, negative = inhibition
1 | CC1=NOC2(CCN(Cc3ccc(C#N)cc3)C2)C1 (stereo not given) | inconclusive: 31.6 µM [inhibitor, single point] | –
2 | Cc1ccccc1Nc1cnc2ccc(-n3ccnc3)nn12 | – | inactive: -32.9% [at 115 µM]
3 | O=C(NCc1nnc2c(-c3nc(C4CC4)no3)cccn12)c1cc(F)ccc1F | active: 28.2 µM | –
4 | CCCCOC(=O)c1ccc(Nc2nc3ccc(C)cc3n3cnnc23)cc1 | inconclusive: 28.2 µM [inhibitor, partial curve, poor fit] | –
5 | COc1ccc(-c2onc(C)c2C(=O)NCCc2cccs2)cc1 | inconclusive: 28.2 µM [inhibitor, partial curve, poor fit] | –
6 | C/C=C/C=C/C(=O)NCc1ccc(OC)cc1 | inconclusive: 39.8 µM [inhibitor, single point] | –
7 | CSc1ccc(CNC(=O)c2ncoc2-c2cccs2)cc1 | inconclusive: 28.2 µM [inhibitor, single point] | –
8 | Cc1ccc(C)c(NC(=O)COc2ncnc3ccccc23)c1 | – | inactive: 7.37%
9 | CCC(=O)N1N=C(c2ccc(NS(C)(=O)=O)cc2)CC1c1ccc(F)cc1 (stereo not given) | inconclusive: 28.2 µM [inhibitor, partial curve, poor fit] | –
10 | Cc1sc2c(c1C)C(O)=C(C(=O)Nc1ccccc1)S(=O)(=O)N2C | inconclusive: 28.2 µM [inhibitor, single point] | –
11 | CN(/N=C/c1ccc(O)cc1O)c1ncc(C(F)(F)F)cc1Cl | inconclusive: 22.4 µM [inhibitor, partial curve, poor fit] | –
12 | CCc1noc(-c2cccn3c(CNC(=O)c4ccco4)nnc23)n1 | active: 28.2 µM | –
13 | O=C(Nc1ccc(F)cc1)c1ccc(CSc2ccc(Cl)cc2)o1 | inconclusive: 12.6 µM [inhibitor, partial curve, poor fit] | –
14 | CCn1c2c(c(=O)n1-c1ccccc1)CCN(C(=O)c1cccc(N(C)C)c1)C2 | inconclusive: 35.5 µM [inhibitor, single point] | –
15 | CCCCn1c(=O)n(CC(C#N)CCC#N)c(=O)c2c1nc(CO)n2CCC (stereo not given) | – | inactive: 11.9%
16 | CCC(C)C(NC(=O)C1CCC(C(C)C)CC1)C(=O)O (stereo not given) | – | inactive: 17.2%
17 | COc1cccc(NC(=O)c2oc3ccc(S(=O)(=O)N4CCC5(CC4)OCCO5)cc3c2C)c1 | inconclusive: 25.1 µM [inhibitor, partial curve, poor fit] | –
18 | O=C(Cn1ccn2nc(-c3ccc(F)cc3)c(CO)c2c1=O)NCc1ccc2c(c1)OCO2 | inconclusive: 28.2 µM [inhibitor, partial curve, poor fit] | –
19 | O=C(NCc1cccs1)c1cc(Br)cn2ccnc12 | active: 39.8 µM | –
20 | c1ccc2c(CN3CC(Oc4ccc5c(c4)OCO5)C3)cccc2c1 | inconclusive: 50.1 µM [inhibitor, partial curve, poor fit] | –
21 | O=C1CN(Cc2ccc(-c3cc(F)cc(F)c3)cc2)CCN1c1nccc(Cl)n1 | inconclusive: 22.4 µM [inhibitor, partial curve] | –
22 | Cc1cnc(CNC(=O)CC2C(=O)NCCN2CCCc2ccccc2)cn1 (stereo not given) | inconclusive: 31.6 µM [inhibitor, partial curve, poor fit] | –
23 | CCOC(=O)C1CCN(c2nc(-c3ccc(OC)c(OC)c3)nc3cc(OCC)c(OC)cc23)CC1 | inconclusive: 31.6 µM [inhibitor, partial curve, poor fit] | –

Row | Structure (SMILES) | Potency | activity change, negative = inhibition
24 | CC(NCc1cccs1)C(=O)Nc1cc(Cl)cc(Cl)c1 (stereo not given) | inconclusive: 2.82 µM [inhibitor, full curve, poor fit] | –
25 | COc1cccc(O)c1CN1CCCC12Cc1ccccc1CNC2=O (stereo not given) | – | inactive: 15.9% [at 115 µM]
26 | Cc1cc(NC(=O)CCNC(=O)c2ccc3ccccc3c2)n[nH]1 | – | inactive: 2.49%
27 | CCCCn1nc(C(=O)Nc2cc(Cl)ccc2C)c2ccccc2c1=O | inconclusive: 39.8 µM [inhibitor, single point] | –
28 | CCCc1nc(-c2cc3ccccc3[nH]c2=O)no1 | inconclusive: 25.1 µM [inhibitor, partial curve, poor fit] | –
29 | Cc1ccc(NC(=O)CSCc2nc3ccccc3c(=O)[nH]2)cc1 | inconclusive: 39.8 µM [inhibitor, single point] | –
30 | COc1cc(C(=O)Nc2ccc(Cl)cc2)nc2ccc(Cl)cc12 | – | inactive: 8.9%
31 | CC(C)(CNC(=S)Nc1cccc(C(F)(F)F)c1)N1CCCCC1 | – | inactive: -13.7%
32 | C=CCNC(=O)C[C@@H]1CCN(C(=O)c2cccnc2)C[C@@H]1CC | – | inactive: 26% [at 86.2 µM]
33 | Clc1ccc(-c2noc3ncnc(N4CCCCC4)c23)cc1 | – | inactive: -6.36%
34 | COc1ccc(C)cc1NC(=O)c1cc(S(=O)(=O)NCCC2=CCCCC2)ccc1F | inconclusive: 28.2 µM [inhibitor, partial curve, poor fit] | –
35 | Cc1ccccc1NC(=O)CSc1nc2ccc(NC(=O)c3ccco3)cc2s1 | inconclusive: 35.5 µM [inhibitor, partial curve, poor fit] | –
36 | COC(=O)C(=O)CC(=O)c1ccc(N2CCOCC2)cc1 | inconclusive: 14.1 µM [inhibitor, partial curve, poor fit] | –
37 | CCOc1ccc(Oc2ccccc2N)cc1 | – | inactive: -9.79%
38 | CNC(=O)C(C)Sc1cc(-c2ccccc2)c2ccc(OC)cc2n1 (stereo not given) | inconclusive: 39.8 µM [inhibitor, single point] | –
39 | Cc1ccc(C(=O)NCc2nnc3ccc(-c4ccccc4)nn23)c(C)c1 | active: 28.2 µM | –
40 | Cc1ccsc1C(=O)N1CCc2nnc([C@@H]3C[C@@H](O)CN3C(C)C)n2CC1 | – | inactive: -12.9%
41 | COc1cccc(NC(=O)Nc2cc(-c3cn4cccnc4n3)ccc2OC)c1 | inconclusive: 31.6 µM [inhibitor, partial curve, poor fit] | –
42 | COc1cc2c(cc1OC)C(C[C@H]1CN(S(=O)(=O)c3ccc(Cl)cc3)CC[C@H]1CC(=O)O)=NCC2 | active: 28.2 µM | –
43 | O=C(Cc1ccc(F)cc1)N1CCC2(CC1)CCN(Cc1cccs1)c1ccccc1O2 | inconclusive: 7.08 µM [inhibitor, partial curve, poor fit] | –
44 | COc1cc(C(=O)/C=C/c2ccc(Cl)cc2)ccc1OCC(=O)O | – | inactive: -6.2%
45 | NC(=O)c1ccccc1N=Cc1ccc(O)cc1 | inconclusive: 22.4 µM [inhibitor, partial curve, poor fit] | –

— PubChem BioAssay AID1347165 (National Center for Advancing Translational Sciences (NCATS), 2019)
